Laboratory results taken from the supplement of paper PMC12067230.
Single values of this set are uncertain.

assay: amyloid nucleation score relative to library mode (yeast Sup35 reporter selection) (log enrichment difference); higher = more amyloid nucleation; sequences are the first 22 residues of the Bri2 peptide extended by up to 12 random residues; settings: random library (experiment): 1;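 active = nucleation score significantly above 0 at FDR 0.05; inactive = not significantly above 0 or absent from output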
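Note: [psi-pin-] Saccharomyces cerevisiae expressing SupN fusions, induced by 100 µM Cu2SO4, selected 7 d at 30 °C without adenine and uracil, scored by deep sequencing of output versus input.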

| Sequence | amyloid nucleation score |
| --- | --- |
| EASNCFAIRHFENKFAVETLICHSS | inactive |
| EASNCFAIRHFENKFAVETLICHSSGYNRFHNNV | 3.59 |
| EASNCFAIRHFENKFAVETLICHSTWCYIGDRCA | 5.13 |
| EASNCFAIRHFENKFAVETLICHSVGDSIPCLDV | inactive |
| EASNCFAIRHFENKFAVETLICHSVSLLRRVLYW | inactive |
| EASNCFAIRHFENKFAVETLICHSVWMVSVLQFE | inactive |
| EASNCFAIRHFENKFAVETLICHSWRDCMIRVLC | -0.265 |
| EASNCFAIRHFENKFAVETLICHSWVGRVRGLVR | inactive |
| EASNCFAIRHFENKFAVETLICHSWVNSRRRAYL | inactive |
| EASNCFAIRHFENKFAVETLICHTAIMHLSYMPC | inactive |
| EASNCFAIRHFENKFAVETLICHTEYCWIGSYGM | inactive |
| EASNCFAIRHFENKFAVETLICHTMHCSFCFADG | 5.34 |
| EASNCFAIRHFENKFAVETLICHTQVRVVGSVIY | 3.18 |
| EASNCFAIRHFENKFAVETLICHTRPGYLRVHFG | inactive |
| EASNCFAIRHFENKFAVETLICHTSDSPDLYRSC | 1.63 |
| EASNCFAIRHFENKFAVETLICHV | inactive |
| EASNCFAIRHFENKFAVETLICHVA | inactive |
| EASNCFAIRHFENKFAVETLICHVACVRVRYGLW | inactive |
| EASNCFAIRHFENKFAVETLICHVDQHT | inactive |
| EASNCFAIRHFENKFAVETLICHVECCSMWSYLG | 6.48 |
| EASNCFAIRHFENKFAVETLICHVEVAARPGGNA | 6.67 |

same assay, conditions: random library (experiment): 2

| Sequence | amyloid nucleation score |
| --- | --- |
| EASNCFAIRHFENKFAVETLICHSSLGRTRSWYT | 4.42 |
| EASNCFAIRHFENKFAVETLICHSSPGLIVGLIT | inactive |
| EASNCFAIRHFENKFAVETLICHSTCCGRTYLTN | 5.67 |
| EASNCFAIRHFENKFAVETLICHSTLRVNGFSWW | inactive |
| EASNCFAIRHFENKFAVETLICHTAFMVCLRYMS | inactive |
| EASNCFAIRHFENKFAVETLICHTDSSHLLSWEC | 2.7 |
| EASNCFAIRHFENKFAVETLICHTLLQREVRSVL | 4.14 |
| EASNCFAIRHFENKFAVETLICHTLWNLAMDSVD | inactive |
| EASNCFAIRHFENKFAVETLICHTMMGIALHYVQ | inactive |
| EASNCFAIRHFENKFAVETLICHTNRWILVEDPP | inactive |
| EASNCFAIRHFENKFAVETLICHTQ | 8.02 |
| EASNCFAIRHFENKFAVETLICHTRVYIFYWKMG | inactive |
| EASNCFAIRHFENKFAVETLICHTSMFIRKEEDR | 1.08 |
| EASNCFAIRHFENKFAVETLICHTVCKKTVMHCW | inactive |
| EASNCFAIRHFENKFAVETLICHTYLKLSCRLGF | -0.0677 |
| EASNCFAIRHFENKFAVETLICHVCIYIRKWWLC | inactive |
| EASNCFAIRHFENKFAVETLICHVFVRIS | inactive |

same assay, conditions: random library (experiment): 3

| Sequence | amyloid nucleation score |
| --- | --- |
| EASNCFAIRHFENKFAVETLICHSSLLASRTASF | 4.12 |
| EASNCFAIRHFENKFAVETLICHSWSRVWFSYCG | inactive |
| EASNCFAIRHFENKFAVETLICHTAMVIRLRWDA | inactive |
| EASNCFAIRHFENKFAVETLICHTCCNCCNSVVR | 7.67 |
| EASNCFAIRHFENKFAVETLICHTI | 1.44 |
| EASNCFAIRHFENKFAVETLICHTLLYIRYFIVR | -0.225 |
| EASNCFAIRHFENKFAVETLICHTMFFAMYIKWW | inactive |
| EASNCFAIRHFENKFAVETLICHTR | inactive |
| EASNCFAIRHFENKFAVETLICHTYWWMFRFISS | inactive |
| EASNCFAIRHFENKFAVETLICHVAERHREWSVL | inactive |
